Experimental data taken from PubChem BioAssay AID894 (National Center for Advancing Translational Sciences (NCATS), 2007).
Several values for one entry are separate records, joined by “and”; a condition that tells them apart may be missing. Equal entries are not always repeated. Hit rate of the full screen: of about 150,000 compounds, about 6,500 (4.3%) were called active. The shares of active, inactive and inconclusive entries below differ from those in the screen. Calls follow the shape of the dose curve; as a rule, active = well fitted inhibition curve with a large enough effect (not every such curve was filed as active); inconclusive = small, poorly fitted or top-dose-only effect, or another doubt; inactive = no such curve, though single readings can be large or run the other way. Where the call is inconclusive, the potency comes from a doubtful curve fit.

molecular target: 15-hydroxyprostaglandin dehydrogenase [NAD(+)] (Homo sapiens) (UniProt P15428); assay: qHTS Assay for Inhibitors of HPGD (15-Hydroxyprostaglandin Dehydrogenase); details: purified HPGD, NADH fluorescence kinetic, PGE2 substrate; activity change, negative = inhibition: active compounds read low
Sequence of UniProt P15428 (P15428 whole entry, looked up): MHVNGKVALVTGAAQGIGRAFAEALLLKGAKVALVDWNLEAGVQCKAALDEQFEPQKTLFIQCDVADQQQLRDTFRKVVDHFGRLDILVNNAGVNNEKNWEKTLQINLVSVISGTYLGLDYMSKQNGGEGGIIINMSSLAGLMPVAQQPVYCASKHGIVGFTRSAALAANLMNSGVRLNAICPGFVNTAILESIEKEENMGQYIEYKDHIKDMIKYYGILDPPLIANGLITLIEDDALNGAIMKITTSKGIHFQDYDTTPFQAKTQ
How it was run: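 20 nM HPGD preincubated 15 min at room temperature with compound in 50 mM Tris-HCl pH 8, 0.01% Tween 20. Started with 1 mM NAD+ and 30 uM prostaglandin E2; NADH fluorescence (360/450 nm) read 5 times over 30-s intervals, last minus first.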
% is scaled to controls: 0 for no effect and ±100 for the full control effect; potency is read from the fitted curve at half-maximal effect; tags tell the direction and shape of the fitted curve.

Compound	Potency	activity change, negative = inhibition
O=C(c1ccc(Cn2c(=O)[nH]c3ccccc3c2=O)cc1)N1CCN(c2ccc(F)cc2)CC1	inconclusive: 28.2 µM [inhibitor, partial curve]	–
Cc1ccc(C(=O)Nc2ncc3c(Cl)cccc3n2)cc1	–	inactive: -3.85%
COc1ccc(-c2cc(C(F)(F)F)nc(SCc3cccc(C(=O)O)c3)n2)cc1	inconclusive: 28.2 µM [inhibitor, partial curve]	–
Cc1ccc(NC(=O)c2cc(NC(=O)c3ccco3)ccc2N2CCCCC2)cc1	inconclusive: 14.1 µM [inhibitor, partial curve]	–
CC(=O)Oc1cc(-c2coc3cc(OC(C)=O)c(OC(C)=O)c(OC(C)=O)c3c2=O)cc(OC(C)=O)c1OC(C)=O	active: 7.94 µM	–
Nc1nc(N)c(N=Nc2ccc(C(=O)O)c(O)c2)c(N)n1	inconclusive: 5.62 µM [inhibitor, single point]	–
Cc1ccc(C(=O)Nc2sc(Cc3ccc4c(c3)OCO4)c(C)c2C(N)=O)cc1	inconclusive: 28.2 µM [inhibitor, partial curve]	–
COc1ccc(C(=O)N/N=C/c2ccc(OC(=O)c3cccc4ccccc34)c([N+](=O)[O-])c2)cc1	–	inactive: -4.63%
CCc1cc2c(=O)[nH]c(-c3ccccn3)nc2s1	–	inactive: -27.2%
CCn1nccc1C(=O)Nc1cc(Cl)cc(Cl)c1	inconclusive: 39.8 µM [inhibitor, single point]	–
O=C(c1ccc2c(c1)OCO2)N1CCOCC1	active: 14.1 µM	–
Fc1ccc(NCc2nnc(SCc3nnc(-c4ccccc4)o3)n2CC2CCCO2)cc1 (stereo unspecified)	–	inactive: -6.19%
N[C@H](CCC(=O)N[C@H](CSN=O)C(=O)NCC(=O)O)C(=O)O	active: 11.2 µM	–
CCOc1ccc(NC(=S)/C(=C(\[O-])c2ccc(C)c([N+](=O)[O-])c2)[n+]2ccccc2)cc1	inconclusive: 25.1 µM [inhibitor, partial curve]	–
CCC(C(=O)OC)n1cnc2c(nnn2-c2cccc(Cl)c2)c1=O (stereo unspecified)	active: 20 µM	–
O=C1NC(=S)S/C1=C1\Sc2ccccc2N1CCCS(=O)(=O)O	active: 25.1 µM	–
Cc1nc2cc(C(=O)OCC(=O)NC34CC5CC(CC(C5)C3)C4)ccc2n1-c1ccccc1	inconclusive: 28.2 µM [inhibitor, single point]	–
CCc1cc2c(=O)c(-c3cnn(-c4ccccc4)c3)c(C)oc2c(CN2CCCCC2)c1O	inconclusive: 25.1 µM [inhibitor, partial curve]	–
COc1cc2ncnc(Nc3cccc(Cl)c3)c2cc1OC	inconclusive: 31.6 µM [inhibitor, partial curve] and inconclusive: 35.5 µM [inhibitor, single point]	–
CC1(C)Cc2nc3oc4c(N5CCOCC5)ncnc4c3cc2CO1	inconclusive: 17.8 µM [inhibitor, partial curve]	–
O=C(O)CSc1nnc(CNc2cccc(C(F)(F)F)c2)n1Cc1ccco1	–	inactive: -8.85%
COc1ccc(/C=N/NC(=O)c2ccc(Cl)cc2)cc1Cn1cc(Cl)cn1	inconclusive: 31.6 µM [inhibitor, single point]	–
O=[N+]([O-])c1cccc(C(=S)N2CCN(c3ccccc3)CC2)c1	active: 22.4 µM	–

Compound	Potency	activity change, negative = inhibition
O=C(CN1CCOCC1)Nc1ccc(S(=O)(=O)NC2CCCCC2)cc1	inconclusive: 31.6 µM [inhibitor, single point]	–
CCn1c(-c2cc(-c3cc(OC)ccc3OC)nc3ccccc23)n[nH]c1=S	inconclusive: 28.2 µM [inhibitor, single point]	–
CCCn1nc2cc(C(=O)NCCc3cccs3)ccc2c1OCC	inconclusive: 4.47 µM [inhibitor, single point]	–
N#Cc1nc(-c2ccccc2Cl)oc1NCC1CCCO1 (stereo unspecified)	inconclusive: 25.1 µM [inhibitor, partial curve]	–
O=C(COc1ccccc1)Nc1ccc(-c2nnc(-c3ccco3)o2)cc1	inconclusive: 6.31 µM [inhibitor, partial curve]	–
O=c1oc2cc(O)ccc2s1	inconclusive: 35.5 µM [inhibitor, partial curve]	–
CCS(=O)(=O)CCSc1nc(C)cc(C)c1C#N	–	inactive: -1.53%
N#Cc1nc(-c2cccs2)oc1NCc1ccc2c(c1)OCO2	inconclusive: 35.5 µM [inhibitor, partial curve]	–
CCOc1cccc(-c2nnc3n2N=C(c2cc(OC)ccc2OC)CS3)c1	active: 25.1 µM	–
Cc1ccccc1-c1nc2sc3c(c2c(=O)n1N)CCCC3	active: 25.1 µM	–
CC(=O)N1N=C(C)CC1c1ccc(O)cc1 (stereo unspecified)	–	inactive: 1.34%
Cc1noc(C)c1CSc1nc2[nH]ncc2c(=O)n1-c1ccccc1	–	inactive: -13.6%
CSCCOC(=O)COc1ccc(/C=N/NC(=O)c2nn(C)cc2Cl)cc1	active: 3.98 µM	–
CCCCC1=CC2=C(c3ccco3)C(=O)C(C)(OC(=O)c3ccc(OC)cc3)C(=O)C2=CN1C1CCCCC1 (stereo unspecified)	inconclusive: 3.98 µM [inhibitor, partial curve]	–
O=C(O)c1ccc(NC(=O)C2CC=CCC2C(=O)O)cc1 (stereo unspecified)	–	inactive: -8.42%
Cc1cccc(/C(N)=N/OC(=O)c2cccs2)c1	active: 20 µM	–
Cc1ccc(NC2=C(N3CCOCC3)C(=O)c3ccccc3C2=O)cc1	inconclusive: 22.4 µM [inhibitor, partial curve]	–
O=C(CCC(=O)c1ccc(Oc2ccccc2)cc1)Nc1cccc(Cl)c1	–	inactive: -17.1%
O=C(COc1ccc(Cl)cc1Cl)NC(=S)N1CCCc2ccccc21	active: 22.4 µM	–
COc1ccccc1Nc1nc(N)nc(CSC(=S)N2CC(C)CC(C)C2)n1 (stereo unspecified)	–	inactive: -27.3%
O=C(NCCCN1CCOCC1)c1ccc(Sc2cccc(Cl)c2)c([N+](=O)[O-])c1	–	inactive: -6.76%
CCOC(=O)c1cc(-c2ccccc2)sc1NC(=O)c1ccc(OC)cc1	active: 3.55 µM	–
Cc1nn(CCC#N)c2nc(-c3ccccc3)cc(C(F)(F)F)c12	inconclusive: 28.2 µM [inhibitor, partial curve]	–
